First the molecules themselves.
B1: USP1, O94782 (protein)
chain: MPGVIPSESNGLSRGSPSKKNRLSLKFFQKKETKRALDFTDSQENEEKASEYRASEIDQVVPAAQSSPINCEKRENLLPFVGLNNLGNTCYLNSILQVLYFCPGFKSGVKHLFNIISRKKEALKDEANQKDKGNCKEDSLASYELICSLQSLIISVEQLQASFLLNPEKYTDELATQPRRLLNTLRELNPMYEGYLQHDAQEVLQCILGNIQETCQLLKKEEVKNVAELPTKVEEIPHPKEEMNGINSIEMDSMRHSEDFKEKLPKGNGKRKSDTEFGNMKKKVKLSKEHQSLEENQRQTRSKRKATSDTLESPPKIIPKYISENESPRPSQKKSRVKINWLKSATKQPSILSKFCSLGKITTNQGVKGQSKENECDPEEDLGKCESDNTTNGCGLESPGNTVTPVNVNEVKPINKGEEQIGFELVEKLFQGQLVLRTRCLECESLTERREDFQDISVPVQEDELSKVEESSEISPEPKTEMKTLRWAISQFASVERIVGEDKYFCENCHHYTEAERSLLFDKMPEVITIHLKCFAASGLEFDCYGGGLSKINTPLLTPLKLSLEEWSTKPTNDSYGLFAVVMHSGITISSGHYTASVKVTDLNSLELDKGNFVVDQMCEIGKPEPLNEEEARGVVENYNDEEVSIRVGGNTQPSKVLNKKNVEAIGLLGGQKSKADYELYNKASNPDKVASTAFAENRNSETSDTTGTHESDRNKESSDQTGINISGFENKISYVVQSLKEYEGKWLLFDDSEVKVTEEKDFLNSLSPSTSPTSTPYLLFYKKL
B2: ATP1B2, P14415 (protein)
chain: MVIQKEKKSCGQVVEEWKEFVWNPRTHQFMGRTGTSWAFILLFYLVFYGFLTAMFTLTMWVMLQTVSDHTPKYQDRLATPGLMIRPKTENLDVIVNVSDTESWDQHVQKLNKFLEPYNDSIQAQKNDVCRPGRYYEQPDNGVLNYPKRACQFNRTQLGNCSGIGDSTHYGYSTGQPCVFIKMNRVINFYAGANQSMNVTCAGKRDEDAENLGNFVMFPANGNIDLMYFPYYGKKFHVNYTQPLVAVKFLNVTPNVEVNVECRINAANIATDDERDKFAGRVAFKLRINKT
B3: CLVS2, Q5SYC1 (protein)
chain: MTHLQAGLSPETLEKARLELNENPDTLHQDIQEVRDMVITRPDIGFLRTDDAFILRFLRARKFHHFEAFRLLAQYFEYRQQNLDMFKSFKATDPGIKQALKDGFPGGLANLDHYGRKILVLFAANWDQSRYTLVDILRAILLSLEAMIEDPELQVNGFVLIIDWSNFTFKQASKLTPSMLRLAIEGLQDSFPARFGGIHFVNQPWYIHALYTVIRPFLKEKTRKRIFLHGNNLNSLHQLIHPEILPSEFGGMLPPYDMGTWARTLLDHEYDDDSEYNVDSYSMPVKEVEKELSPKSMKRSQSVVDPTVLKRMDKNEEENMQPLLSLD
B4: HMBOX1, Q6NT76 (protein)
chain: MLSSFPVVLLETMSHYTDEPRFTIEQIDLLQRLRRTGMTKHEILHALETLDRLDQEHSDKFGRRSSYGGSSYGNSTNNVPASSSTATASTQTQHSGMSPSPSNSYDTSPQPCTTNQNGRENNERLSTSNGKMSPTRYHANSMGQRSYSFEASEEDLDVDDKVEELMRRDSSVIKEEIKAFLANRRISQAVVAQVTGISQSRISHWLLQQGSDLSEQKKRAFYRWYQLEKTNPGATLSMRPAPIPIEDPEWRQTPPPVSATSGTFRLRRGSRFTWRKECLAVMESYFNENQYPDEAKREEIANACNAVIQKPGKKLSDLERVTSLKVYNWFANRRKEIKRRANIEAAILESHGIDVQSPGGHSNSDDVDGNDYSEQDDSTSHSDHQDPISLAVEMAAVNHTILALARQGANEIKTEALDDD

Four molecules from the supplement of paper PMC11741623 can be followed below.

The list shows a part of the results. Interaction screen of human proteins with wild-type SARS-CoV-2 proteins by split-DHFR complementation in yeast, 1 µg/mL methotrexate. Value = fitness of the pair (three or more lineages) minus that of the viral protein without a human partner, on a scale set by negative (0) and fused positive (1) controls, mean of up to three cultures; higher = more likely to interact. Active = false discovery rate below 0.05 (one-sided t-test) in at least one culture. Nearly all pairs are not hits, and differences among them are mostly noise (correlation between cultures about 0.3); most hits were seen in one culture only. Human sequences are the Swiss-Prot entries looked up by gene name; the clone may be another isoform. NSP2 values were corrected by the authors for a growth advantage. Listed are human proteins with a hit and a random twelfth of the others.

The first experiment has as its target SARS-CoV-2 NSP1. Put plainly: yeast fitness gain over the viral ORF with no human partner (scaled fitness); higher = more likely to interact. The procedure:
(§1)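 Split mouse DHFR complementation in pooled diploid yeast: human ORFeome clones carry one fragment and viral ORFs the other; barcoded lineages compete in 1 µg/mL methotrexate and fitness is read by barcode sequencing in up to three cultures.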
In the case of B1, the yeast fitness gain is inactive: 0.0739.

In the case of B2, the yeast fitness gain is inactive: 0.0388.

On to B3, for which the yeast fitness gain is inactive: 0.0151.

Regarding B4, the yeast fitness gain is inactive: -0.0623.

The next experiment concerns the target SARS-CoV-2 NSP10. Described as above. The procedure: as §1
On to B1, for which the yeast fitness gain is inactive: -0.108.

On to B2, for which the yeast fitness gain is inactive: 0.0208.

Consider B3, for which the yeast fitness gain was inactive: 0.0385.

Another experiment has as its target SARS-CoV-2 NSP13. The experiment is described as above. Here is the method: as §1
As for B1, the yeast fitness gain is inactive: -0.247.

For B2, the yeast fitness gain is inactive: 0.0508.

With B3, the yeast fitness gain is inactive: 0.0233.

In the case of B4, the yeast fitness gain was inactive: -0.33.

The target of a further experiment is SARS-CoV-2 ORF7B. The experiment is described as above. The procedure: as §1
As for B1, the yeast fitness gain was inactive: -0.426.

Take B2: the yeast fitness gain is inactive: -0.0715.

In the case of B3, the yeast fitness gain is inactive: 0.0615.

The target of a further experiment is SARS-CoV-2 NSP12. The experiment is described as above. The procedure: as §1
For B2, the yeast fitness gain is inactive: 0.15.

Regarding B3, the yeast fitness gain was inactive: 0.00104.

As for B4, the yeast fitness gain was inactive: -0.0895.

A further experiment deals with SARS-CoV-2 NSP2. The experiment is described as above. The procedure:
as §1
On to B2, for which the yeast fitness gain was inactive: -0.108.

As for B3, the yeast fitness gain was inactive: -0.0842.

A further experiment deals with SARS-CoV-2 NSP4. Described as above. Here is the method: as §1
As to B2, the yeast fitness gain was inactive: -0.392.

The next experiment concerns the target SARS-CoV-2 NSP6. The description is as above. The procedure:
as §1
Turning to B2, the yeast fitness gain was inactive: 0.0052.

On to B3, for which the yeast fitness gain was inactive: -0.0783.

For another experiment, the target named is SARS-CoV-2 NSP8. The experiment is described as above. Here is the method: as §1
In the case of B2, the yeast fitness gain is inactive: 0.0247.

For the molecule B3, the yeast fitness gain was inactive: -0.109.

For a further experiment, the target named is SARS-CoV-2 ORF10. Described as above. Here is the method: as §1
Turning to B2, the yeast fitness gain was inactive: 0.0494.

On to B3, for which the yeast fitness gain was inactive: 0.0702.

Another experiment deals with SARS-CoV-2 ORF3B. Described as above. Here is the method:
as §1
B2: the yeast fitness gain was inactive: -0.168.

Take B3: the yeast fitness gain was inactive: 0.097.

For B4, the yeast fitness gain is inactive: -0.201.

The target in another experiment is SARS-CoV-2 ORF6. The description is as above. Here is the method: as §1
For the molecule B2, the yeast fitness gain was inactive: -0.115.

Turning to B3, the yeast fitness gain was inactive: 0.0519.

As to B4, the yeast fitness gain is inactive: 0.00748.

A further experiment deals with SARS-CoV-2 ORF8. The experiment is described as above. Here is the method: as §1
Regarding B2, the yeast fitness gain is inactive: -0.0828.

Regarding B3, the yeast fitness gain was inactive: 0.0234.

The next experiment has as its target SARS-CoV-2 ORF9B. The description is as above. The procedure: as §1
With B2, the yeast fitness gain is inactive: 0.0806.

On to B3, for which the yeast fitness gain is inactive: 0.0214.

Consider B4, for which the yeast fitness gain is inactive: -0.0371.

In the next experiment the target is SARS-CoV-2 NSP16. The description is as above. The procedure: as §1
With B3, the yeast fitness gain is inactive: 0.0564.

Another experiment has as its target SARS-CoV-2 NSP5. The experiment is described as above. The procedure: as §1
As to B3, the yeast fitness gain was inactive: 0.00677.

Regarding B4, the yeast fitness gain was inactive: 0.0269.

The target of the next experiment is SARS-CoV-2 NSP7. The description is as above. The procedure: as §1
For B3, the yeast fitness gain was inactive: -0.0117.

In the next experiment the target is SARS-CoV-2 ORF7A. The experiment is described as above. Here is the method:
as §1
As to B3, the yeast fitness gain was inactive: 0.0754.

The target of a further experiment is SARS-CoV-2 S. Described as above. Here is the method: as §1
For the molecule B3, the yeast fitness gain is inactive: -0.068.
